Measurements: PubChem BioAssay AID1345083 (National Center for Advancing Translational Sciences (NCATS), 2018)
About 6,200 (6.6%) of roughly 94,000 compounds were called active. Inconclusive results, whose numbers are uncertain, are shown with a selection of clear calls. The call rests on the fitted dose curve; in most records, active means well fitted inhibition curve with a large enough effect; inconclusive means small, poorly fitted or top-dose-only effect; inactive means flat fitted curve, though single readings scatter. A potency beside an inconclusive call is a rough fit, not a confirmed value.
Potency means the concentration at half of the fitted maximal effect; tags describe the fitted curve by direction and shape.

Assay: Cytotoxic Profiling in HEK 293 Cell Line of Diverse Libraries Using Quantitative High-Throughput Screening; further: nearly all actives have a fitted effect of over 60% in size
Details: HEK 293 viability, ATP luminescence (CellTiter-Glo), 48-72 h; series mostly up to 115 µM
Procedure, shortened: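 CellTiter-Glo luminescence (cellular ATP) was read after 48 or 72 hr of compound exposure at 37 degree Celsius. Cells were HEK 293 plated at 250 cells/well.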
With `COc1cccc(Nc2ccnc(N3CCN(C(=O)C4CC4)CC3)n2)c1` the Potency was inconclusive: 89.1 µM [inhibitor, single point]. With `COc1ccc(C(=O)Nc2ccc([C@H]3OCC(=O)N(C(C)C)[C@@H]3CO)cc2)cc1` the Potency was inconclusive: 89.1 µM [inhibitor, partial curve, poor fit]. In the case of `Cc1ccc(CN(C)C(=O)c2coc(COc3ccc4c(c3)OCO4)n2)o1`, the Potency is reported as inconclusive: 35.5 µM [inhibitor, partial curve, poor fit]. With `COC(=O)CCCNC(=O)[C@@]1(O)C[C@@H](O)[C@H](O)[C@@H](NC(=O)Nc2ccc(C)cc2)C1` the Potency was “inactive”. For `CC(NC1CCC2(CCNCC2)CC1)c1nc(-c2ccccn2)no1` (configuration not stated), the Potency was inconclusive: 100 µM [inhibitor, single point]. For `Cc1ccc(CN2CCc3nc(C(C)C)nc(-c4ccc(O)cc4)c3CC2)cc1`, the Potency was inconclusive: 79.4 µM [inhibitor, partial curve, poor fit]. With `COc1ccc(CNC(=O)C2(N3C[C@@H](C)O[C@@H](C)C3)Cc3ccccc3C2)cc1` the Potency was inconclusive: 20 µM [inhibitor, full curve]. With `CSc1cccc(NC(=O)N[C@H]2CCN(C(=O)c3cccn3C)[C@@H]2C(=O)N[C@H](Cc2ccccc2)C(N)=O)c1` the Potency was “inactive”. With `CCOc1cccc(CN2CC(c3nc(Cc4cccnc4)no3)C2)c1` the Potency was inconclusive: 89.1 µM [inhibitor, single point]. For `Cc1ccccc1NC(=O)Cn1c(=O)n(-c2ccccc2)c(=O)c2c1cc(C)n2C`, the Potency was “inactive”. For `CS(=O)(=O)Nc1ccc(C2(C(=O)N3CCN(c4ccccn4)CC3)CCCCC2)cc1`, the Potency was inconclusive: 89.1 µM [inhibitor, single point]. With `CCC(C(=O)Nc1ccc2c(c1)CN(Cc1cc(F)cc(F)c1)C(=O)CO2)c1ccccc1` (configuration not stated) the Potency was active: 44.7 µM. With `COCCCNc1ncnc2sc3c(c12)CCNC3` the Potency was inconclusive: 89.1 µM [inhibitor, single point]. In the case of `O=C(NCC1CCCCC1)c1cc(-c2ccc(F)cc2)c2nncn2n1`, the Potency is reported as inconclusive: 39.8 µM [inhibitor, single point]. With `O=C(COc1ccc(F)cc1)NCc1nnc2c(-c3nc(C4CC4)no3)cccn12` the Potency was inconclusive: 89.1 µM [inhibitor, single point]. In the case of `Cc1ncccc1C(=O)N1CC(Oc2ccc(-c3nc(-c4ccccc4)no3)cc2)C1`, the Potency is reported as active: 12.6 µM. With `CCN(CC)C(=O)CCc1c(C)nn(-c2ccccc2)c1Oc1cccc(F)c1` the Potency was inconclusive: 39.8 µM [inhibitor, partial curve, poor fit].
